The other results are listed elsewhere or left out.
biological target: T1, OsWOX13 (Oryza sativa, UniProt Q5QMM3 1-267); test: protein-binding microarray (RPBM); PBS, 2% BSA, 51.3 ng/ul salmon testes DNA, 50 uM zinc acetate, 200 nM TF, 25 C, 1 h; high values mean tight binding; conditions: protein: recombinant; tags: N-terminal polyhistidine and DsRed monomer fusion (pET32a); label: CyDye5-dUTP incorporated in the synthesized complementary strand; 3' TTTTT single-stranded linker to array surface; dsDNA, one strand shown
T1 sequence: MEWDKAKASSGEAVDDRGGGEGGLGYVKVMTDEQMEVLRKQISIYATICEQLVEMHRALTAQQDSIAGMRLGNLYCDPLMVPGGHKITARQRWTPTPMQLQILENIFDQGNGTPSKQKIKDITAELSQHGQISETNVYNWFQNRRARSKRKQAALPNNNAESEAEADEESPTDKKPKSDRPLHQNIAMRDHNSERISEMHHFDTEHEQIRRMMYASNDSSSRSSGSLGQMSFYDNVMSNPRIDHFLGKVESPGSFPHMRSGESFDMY
Method in brief: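 An Axon 4000B scanner gave the binding signal as per-feature fluorescence intensity in arbitrary units. This followed washing of a custom Agilent array that had been incubated for 1 h at 25 °C with 200 nM protein in PBS, 2% BSA, salmon testes DNA and 50 µM zinc acetate. The proteins were transcription factors fused at the N-terminus to polyhistidine and DsRed, expressed in E. coli BL21-CodonPlus and purified on Ni–NTA.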

Row | Sequence | binding signal
1 | ATTCAAATTTAATTTATTGAAACAAAGTCATATAGCAAAACGGAGTCACCTAGTGCAG | 23100 fluorescence intensity (a.u.)
2 | GTTTTGGTTTGGTAAAATAGATATAGTGATATACTTTATTCGGAGTCACCTAGTGCAG | 5750 fluorescence intensity (a.u.)
3 | GCAAATATTTGTCAGATAAATTGCAATTTGACACGTACCTCGGAGTCACCTAGTGCAG | 9580 fluorescence intensity (a.u.)
4 | TATGATTAACAGCTCCTCCCTCTCCAGTCCTTGTTCGCCACGGAGTCACCTAGTGCAG | 23100 fluorescence intensity (a.u.)
5 | GAAGAGGTAATGTGAAGACCAATCATGCCACCTGATTGTTCGGAGTCACCTAGTGCAG | 7590 fluorescence intensity (a.u.)
6 | ATGGGAGGTGTCAGTCTATTGATTTATATATATTCAAACGCGGAGTCACCTAGTGCAG | 3870 fluorescence intensity (a.u.)
7 | ACCTTTAATTTGCAGAAAGAAAGAAAGAAAGAAAGAAAGGCGGAGTCACCTAGTGCAG | 10500 fluorescence intensity (a.u.)
8 | CGAATCTTCTGAGCCTAATTACACCATGATTTGACAATATCGGAGTCACCTAGTGCAG | 4570 fluorescence intensity (a.u.)
9 | ATATCTATATCTAATTTACTATATTAGAATGTGTCGTATCCGGAGTCACCTAGTGCAG | 3480 fluorescence intensity (a.u.)
10 | AGTGTGGAGATTAAATTTATTAATTAGCAGCTGGCTGGTACGGAGTCACCTAGTGCAG | 25600 fluorescence intensity (a.u.)
11 | ATGTTTAATAGACTAAATTAGCGTCCAAACATCCGATGTGCGGAGTCACCTAGTGCAG | 34200 fluorescence intensity (a.u.)
12 | GCCAATGAGCAAACTAATTAATTGTTTCCTTATAATTAAGCGGAGTCACCTAGTGCAG | 14300 fluorescence intensity (a.u.)
13 | AGATCTTAATTATTCTATATATTAATATTCAACCAAACAACGGAGTCACCTAGTGCAG | 6980 fluorescence intensity (a.u.)
14 | GGAGGAGAGAGAGATTGATAGGTAGACAGATATAGGTAGTCGGAGTCACCTAGTGCAG | 9280 fluorescence intensity (a.u.)
15 | CCTCTAAATCAAATTATTCAATCTCCATACAAAATTAGACCGGAGTCACCTAGTGCAG | 16300 fluorescence intensity (a.u.)
16 | ATGACTGGCCCTATCAATTACTAGTAACCACTGCTTTCAGCGGAGTCACCTAGTGCAG | 28700 fluorescence intensity (a.u.)
17 | CCTCAATCTTTGATGAGCTTCCTTCTCATCCTCTATTGTCCGGAGTCACCTAGTGCAG | 5890 fluorescence intensity (a.u.)
18 | TCCCAATTGCTCAGGTCCAATTACTGATAAGCCACCCAGCCGGAGTCACCTAGTGCAG | 4120 fluorescence intensity (a.u.)
19 | ATTAACTAATTTTAGTCTAGTCCCTCCCATCCAATGATCCCGGAGTCACCTAGTGCAG | 11100 fluorescence intensity (a.u.)
20 | TCCGGGATTATTTTATAATCAGTGCAGTTGAGAGAGTGAACGGAGTCACCTAGTGCAG | 5370 fluorescence intensity (a.u.)
21 | CTCATTAAATAGATGTTTATGTGAGAGTGGGAAGATGGTTCGGAGTCACCTAGTGCAG | 4410 fluorescence intensity (a.u.)
22 | ACCTTAATTAGTTCTTTTCTGCTCAGTTATGCTCATCATTCGGAGTCACCTAGTGCAG | 38300 fluorescence intensity (a.u.)
23 | CATGTGATTGAAAATACTCTAGATAATAATTGCTAGTGGGCGGAGTCACCTAGTGCAG | 49200 fluorescence intensity (a.u.)
24 | GTCTTCTATAATTACTTTTCCCCGTTCTGGAATAATTGGCCGGAGTCACCTAGTGCAG | 4740 fluorescence intensity (a.u.)
25 | TTAATCAATTATCTAAGCAATCACCAACGCACCGGGGCAGCGGAGTCACCTAGTGCAG | 40300 fluorescence intensity (a.u.)
26 | ATTAATACTTGACTAATCATACGCTAATGATTTATCTCGTCGGAGTCACCTAGTGCAG | 12900 fluorescence intensity (a.u.)
27 | AATAAATATAAAATTAATAATATAAATTAATATGTAGTATCGGAGTCACCTAGTGCAG | 13700 fluorescence intensity (a.u.)

Row | Sequence | binding signal
28 | TTAAATTACATATACAATTTCATTGTATTTACAATGTAACCGGAGTCACCTAGTGCAG | 14900 fluorescence intensity (a.u.)
29 | ACAATTAATTTAATTAAATTGAGGTCAGCCATGCATGCAGCGGAGTCACCTAGTGCAG | 64800 fluorescence intensity (a.u.)
30 | AAGTATTAATTTGTCCTAATTAAACTGACTGCATATATTCCGGAGTCACCTAGTGCAG | 20800 fluorescence intensity (a.u.)
31 | GAGTAGATTGCAGATTCAAGTCAATGGATTTAAGTCATGGCGGAGTCACCTAGTGCAG | 7850 fluorescence intensity (a.u.)
32 | CACTATTTTGTAGATTTAATTAATATATGCAACGCATGCTCGGAGTCACCTAGTGCAG | 3970 fluorescence intensity (a.u.)
33 | TTACACTACGATTATACTGTAATTATATCTGTTAAATTTTCGGAGTCACCTAGTGCAG | 3740 fluorescence intensity (a.u.)
34 | ACTTATTAATTTGGTAATTTATAGATATCCTTATGTAATACGGAGTCACCTAGTGCAG | 19100 fluorescence intensity (a.u.)
35 | TGTGAAAATGGATAATTAAGGGATCCCAAAGACCCATAAGCGGAGTCACCTAGTGCAG | 10800 fluorescence intensity (a.u.)
36 | CGGCTAAACTTAAATTTCGTTCCATTGCATTGTTAAGATCCGGAGTCACCTAGTGCAG | 3980 fluorescence intensity (a.u.)
37 | ATCAAGAATCAATCACTCGCTCGTCTTCTCCTCCATTGGACGGAGTCACCTAGTGCAG | 14800 fluorescence intensity (a.u.)
38 | GGGGTTTGACAGTGGGGTGGAGAGGACAAGTAAACAGTGGCGGAGTCACCTAGTGCAG | 3820 fluorescence intensity (a.u.)
39 | AGTCAAATTAATCACGCAGCTGAATGCTGAATAATGTGTCCGGAGTCACCTAGTGCAG | 24000 fluorescence intensity (a.u.)
40 | GTGGAATTTACTAACTAGTGAATTAAGAAGATAATGGATGCGGAGTCACCTAGTGCAG | 3840 fluorescence intensity (a.u.)
41 | TATTTCCACTCGAGTGATTGATATACTTAGGTCCTGTTTGCGGAGTCACCTAGTGCAG | 20000 fluorescence intensity (a.u.)
42 | GTAGGATTAATTGTCAGGAATGTTAGATATAGAAATAAATCGGAGTCACCTAGTGCAG | 6430 fluorescence intensity (a.u.)
43 | AGATAAATGTGATTGTAATGTTGATCTTCGACGCAAGAGTCGGAGTCACCTAGTGCAG | 21300 fluorescence intensity (a.u.)
44 | ACAAAACAAATTATATATTTCGTCAGAAAACTGCGAGACGCGGAGTCACCTAGTGCAG | 8340 fluorescence intensity (a.u.)
45 | CCAACAAGACTTGATTAATCCAATCATCCCAATAATCGTTCGGAGTCACCTAGTGCAG | 23700 fluorescence intensity (a.u.)
46 | GAGCCTGATTTTGAGTGAAATTAAGTGGAATTGTATTAAGCGGAGTCACCTAGTGCAG | 8990 fluorescence intensity (a.u.)
47 | TCCTAATTGAAGGGGATGGGGCAGTCTCTGGTCGACCTCACGGAGTCACCTAGTGCAG | 32300 fluorescence intensity (a.u.)
48 | CCACCAATTAAACACGTCTATCTTGCCATATATTCCTCACCGGAGTCACCTAGTGCAG | 9350 fluorescence intensity (a.u.)
49 | AATCTGGACATAATGATTTGTTGTATTAGGAGTACTCCCCCGGAGTCACCTAGTGCAG | 7280 fluorescence intensity (a.u.)
50 | TCCATAATTAGCCATAAGTGCTATACATTAACCCCATATGCGGAGTCACCTAGTGCAG | 27700 fluorescence intensity (a.u.)
51 | GTGCTTGATTAGCTAGGGAAGAAGCATCGTGCGGAAGATACGGAGTCACCTAGTGCAG | 14500 fluorescence intensity (a.u.)
52 | AACAAATCAAATTCCGTTAATAGAGAGTTTCTAAAATATGCGGAGTCACCTAGTGCAG | 10400 fluorescence intensity (a.u.)
53 | CATTATTTGATAAAATTGATAATTATGTGGCTAGGTTTAGCGGAGTCACCTAGTGCAG | 26800 fluorescence intensity (a.u.)
54 | CTAATTATAAACCTTAATCAGCTAAAATCCTAACCCATCACGGAGTCACCTAGTGCAG | 3290 fluorescence intensity (a.u.)
